Results: PubChem BioAssay AID760 (NMMLSC, 2007)
About 360 (0.19%) of roughly 190,000 compounds were called active. The inconclusive results got no clear call from the source; some entries with a clear call stand among them for comparison.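 How the source made its calls: active means GTP binding activity at least 20 points away from 100%, either lowered or raised; inconclusive means signal likely due to the compound's own green fluorescence; inactive means the rest.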

Each compound was assayed against Ras-related protein Rab-2A (Canis lupus familiaris) (UniProt P61105) (assay: Rab2 wt fluorescent GTP binding changes, either direction – biochemical, dog, bead-based flow cytometry, multiplex, primary screen (AID 760;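 further: 0% = beads with excess unlabeled GTP and 100% = no-compound control corrected for plate trend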)). Conditions: GST-Rab2 wt beads, Bodipy-GTP binding, at 10 µM.

SMILES	GTP binding activity
COc1ccc(OC(=O)c2cccc(S(=O)(=O)N3CCCC3)c2)cc1	inconclusive: 91%
O=c1[nH]cnc2c1N=C(c1cccc([N+](=O)[O-])c1)CC(c1ccccc1)N2 (stereo not drawn)	inactive: 100%
O=C(CSc1nnc2c(n1)[nH]c1ccccc12)Nc1ccc(S(=O)(=O)Nc2ncccn2)cc1	inconclusive: 74%
COc1ccc(/C=C2\N=C(C)N(c3ccc4ccccc4c3)C2=O)cc1OC	inconclusive: 107%
CC(C)(C)NC(=O)COC(=O)c1ccc(S(=O)(=O)N2CCCC2)cc1	inactive: 98%
O=C(CSc1nnc(-c2ccncc2)n1Cc1ccccc1)NC1CCCc2ccccc21 (stereo not drawn)	inactive: 97%
CCn1c(SCC(=O)NNC(=O)Cc2ccccc2)nnc1-c1ccccc1	inconclusive: 103%
CCOc1ccc2nc(NC3=NC(c4ccc(OC)cc4)CC(=O)N3)nc(C)c2c1 (stereo not drawn)	inconclusive: 105%
O=C(Nc1ccc(NC(=O)c2cccs2)cc1)c1ccc(Br)o1	inconclusive: 96%
CC(=O)Oc1ccc2c(=O)c(-c3nc4ccccc4s3)coc2c1	inactive: 96%
C/C(=N\OC(=O)c1ccccc1F)c1nccs1	inconclusive: 104%
O=C(C1CCN(S(=O)(=O)N2CCC3(CC2)OCCO3)CC1)N1CCOCC1	inconclusive: 100%
CC(C)C(C(=O)Nc1cccnc1)N1C(=O)c2ccccc2C1=O (stereo not drawn)	inconclusive: 105%
CC(=O)N1C(=O)/C(=C2\SC(=S)N(NS(=O)(=O)c3ccc(C)cc3)C2=O)c2ccccc21	inconclusive: 86%
CCN(c1ccccc1)S(=O)(=O)c1ccc(OC)c(NC(=O)c2cccs2)c1	inconclusive: 89%
O=C1Nc2ccccc2N(O)N1c1cc(-c2ccccc2)[nH]n1	inconclusive: 95%
COc1cc(C)c(S(=O)(=O)N2CCOCC2)cc1C(C)C	inconclusive: 103%
CCOC(=O)c1sc2ncn(/N=C/c3cccnc3)c(=O)c2c1C	inconclusive: 104%
O=c1cc(CO)oc(CN2CCN(c3ccccc3)CC2)c1O	inconclusive: 107%
CCCC1CCC(=C(C#N)C(N)=O)CC1 (stereo not drawn)	inactive: 101%

SMILES	GTP binding activity
C=CCn1c(SCC(N)=O)nnc1-c1cccc(Br)c1	inconclusive: 103%
CC(=O)Nc1ccc(N=Cc2c(O)c(C(=O)Nc3ccccc3)cc3ccccc23)cc1	inconclusive: 147%
Cc1cc(C(=O)CCl)c(C)n1-c1c(C)n(C)n(-c2ccccc2)c1=O	inactive: 98%
COc1ccc(-c2cc(CNS(=O)(=O)c3ccccc3)on2)cc1	inactive: 94%
CCN(CC)C(=O)c1oc2ccc(S(=O)(=O)N3CCCCCC3)cc2c1C	inconclusive: 92%
Cn1ccc(C(=O)N2CCCc3ccccc32)n1	inactive: 99%
CCOC(=O)c1sc(NC(=O)c2cc(S(=O)(=O)N3CCOCC3)ccc2C)nc1C	inactive: 98%
O=C(Nc1cccc(F)c1)C1CC(=O)N(c2ccc(Cl)cc2)C1 (stereo not drawn)	inconclusive: 105%
O=C(NN=C1C2CC3CC1CC(Cl)(C3)C2)c1ccccn1	inactive: 98%
COc1ccc(C(=O)C2CCCN(Cc3ccc4nonc4c3)C2)c(OC)c1 (stereo not drawn)	inactive: 97%
O=C(Nc1cccc(O)c1)c1cc2nc(-c3ccccc3)cc(-c3ccccc3)n2n1	inconclusive: 88%
Cc1ccc(N2CC(C(=O)NCc3ccc4c(c3)OCO4)CC2=O)cc1C (stereo not drawn)	inactive: 99%
CC(=O)Nc1ccc(NC(=O)COC(=O)CCc2nc3ccccc3s2)cc1	inconclusive: 94%
N#Cc1nc(Cc2ccccc2)oc1NCCN1CCOCC1	inconclusive: 101%
Cc1ccc2[nH]c(=O)c(CN(C(=O)c3cccs3)c3ccccc3)cc2c1	inconclusive: 100%
CCN(C#N)c1nc(NC(C)C)nc(NC(C)(C)C)n1	inconclusive: 95%
COc1cc2[nH]c(=S)n(CC3CCCO3)c(=O)c2cc1OC (stereo not drawn)	inactive: 105%
COc1cc(NC(=O)COC(=O)/C=C/c2ccc(Cl)cc2Cl)cc(OC)c1	inactive: 96%
COc1ccc(-c2c(-c3ccc(O)cc3O)n[nH]c2C)cc1OC	inconclusive: 94%
COc1ccc(CN=C2Nc3ccccc3CS2)cc1	inconclusive: 99%

SMILES	GTP binding activity
CC(CCc1ccccc1)NS(=O)(=O)c1ccccc1 (stereo not drawn)	inactive: 98%
COc1cc(NC(=O)c2cc3c(C)nc4ccccc4c3o2)cc(OC)c1OC	inconclusive: 91%
C/C(=N\NC(=O)c1cc(C)oc1C)c1ccc(N2CCOCC2)cc1	inconclusive: 95%
Cc1cc(-c2ccc(Cl)cc2)n2nc(N)nc2n1	inconclusive: 92%
Cc1cc(C)c(C(=O)CN2C(=O)NC3(CCC(C)CC3)C2=O)cc1C (stereo not drawn)	inconclusive: 93%
COc1ccc(NC(=O)c2cc(S(=O)(=O)N(Cc3ccccc3)c3ccccc3)ccc2Cl)cn1	inconclusive: 101%
CC(C)Sc1n[nH]c2nc3c(c(=O)n12)C1(CCCC1)Cc1ccccc1-3	inconclusive: 101%
O=CN1CCN(C(=O)c2ccccc2F)CC1	inconclusive: 88%
O=S(=O)(N/N=C\c1cccnc1)c1ccccc1	inconclusive: 270%
CCC(=O)N1c2ccc(S(=O)(=O)CCC(=O)Nc3nccs3)cc2CC1C (stereo not drawn)	inconclusive: 104%
COc1ccc(CNC(=O)c2noc(C)c2[N+](=O)[O-])cc1	inactive: 94%
CCCNC(=O)Cn1c(=O)/c(=C\c2ccc(-c3ccc([N+](=O)[O-])cc3)o2)s/c1=C\C(=O)C(C)(C)C	inconclusive: 147%
Cc1cccc2sc(N(CCCN(C)C)C(=O)c3nc4ccccc4s3)nc12	inconclusive: 97%
Cc1cccc(N/N=C(\C#N)S(=O)(=O)C(C)(C)C)c1	inconclusive: 94%
Cn1c(=N)c(S(=O)(=O)c2ccc(F)cc2)cc2c(=O)n3ccccc3nc21	inconclusive: 75%
COc1cc(O)cc2occ(-c3ccc(O)cc3)c(=O)c12	inconclusive: 91%
CCN(CC)S(=O)(=O)c1cccc(-c2n[nH]c(=S)n2/N=C/c2ccc(C(=O)OC)cc2)c1	inconclusive: 82%
COc1cccc(CN2CCNC(=O)C2CC(=O)NCc2cc(C(C)C)no2)c1 (stereo not drawn)	inconclusive: 93%
